Measured values as given in publication PMC12820563, “FoxP3 forms a head-to-head dimer in vivo and stabilizes its multimerization on adjacent microsatellites”.
Some of the results follow.

Each sequence was assayed against T1, MBP-FoxP1dN (Mus musculus, UniProt P58462 326-579) (assay: PD-seq (MBP pull-down with sequencing); 20 mM Tris-HCl pH 7.5, 100 mM NaCl, 1.5 mM MgCl2, 0.4 uM protein, 0.1 uM dsDNA library, 30 min, room temperature, amylose pull-down; high values mean tight binding). Conditions: protein: recombinant; tags: His6-MBP; chain copies: 2; dsDNA, one strand shown.
T1 sequence: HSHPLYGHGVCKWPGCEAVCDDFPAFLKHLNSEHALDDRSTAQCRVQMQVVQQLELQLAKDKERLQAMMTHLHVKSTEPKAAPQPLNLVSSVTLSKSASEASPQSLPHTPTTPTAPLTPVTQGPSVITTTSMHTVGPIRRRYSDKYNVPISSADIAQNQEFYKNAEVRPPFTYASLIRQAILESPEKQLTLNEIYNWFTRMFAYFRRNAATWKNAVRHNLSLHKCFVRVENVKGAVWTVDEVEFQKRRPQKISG
Outline: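 Protein and DNA were mixed at 0.4 µM and 0.1 µM and held for 30 min at room temperature in Tris pH 7.5 buffer with NaCl and MgCl2; the protein was a His6-MBP-tagged, N-terminally truncated mouse FoxP3 or FoxP1 fragment from E. coli, and the DNA a Klenow-filled double-stranded degenerate library. Amylose resin captured the complexes, which were washed three times. Binding is read as reads-per-million enrichment of pull-down versus input after Illumina sequencing, with replicates pooled.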
With “GATGATTGTTCTCCCAGCTGATGAATTTCTTTCATCGAGTAAACAAATTTTCCTAATCTTTCTGTTCAAGCGCCATCTAC” the binding signal was 0.939 RPM ratio (pull-down/input). With “GATGATTGTTCTCCCAGCTGATGAATTAACGATGTCGAGTAAACAAATTTTCCTAATCTTTCTGTTCAAGCGCCATCTAC” the binding signal was 0.979 RPM ratio (pull-down/input). With “GATGATTGTTCTCCCAGCTGATGAATTTCTAAGGTCGAGTAAACAAATTTTCCTAATCTTTCTGTTCAAGCGCCATCTAC” the binding signal was 0.771 RPM ratio (pull-down/input). With “GATGATTGTTCTCCCAGCTGATGAATTGGTACTCTCGAGTAAACAAATTTTCCTAATCTTTCTGTTCAAGCGCCATCTAC” the binding signal was 0.973 RPM ratio (pull-down/input). With “GATGATTGTTCTCCCAGCTGATGAATTAGAGACTTCGAGTAAACAAATTTTCCTAATCTTTCTGTTCAAGCGCCATCTAC” the binding signal was 0.926 RPM ratio (pull-down/input). For “GATGATTGTTCTCCCAGCTGATGAATTACTTCATTCGAGTAAACAAATTTTCCTAATCTTTCTGTTCAAGCGCCATCTAC”, the binding signal was 1.11 RPM ratio (pull-down/input). “GATGATTGTTCTCCCAGCTGATGAATTATCAGTATCGAGTAAACAAATTTTCCTAATCTTTCTGTTCAAGCGCCATCTAC” was tested, and the binding signal was 1.08 RPM ratio (pull-down/input). In the case of “GATGATTGTTCTCCCAGCTGATGAATTAAGGCGTTCGAGTAAACAAATTTTCCTAATCTTTCTGTTCAAGCGCCATCTAC”, the binding signal is reported as 1.02 RPM ratio (pull-down/input). “GATGATTGTTCTCCCAGCTGATGAATTAAAGTGCTCGAGTAAACAAATTTTCCTAATCTTTCTGTTCAAGCGCCATCTAC” was tested, and the binding signal was 0.925 RPM ratio (pull-down/input). “GATGATTGTTCTCCCAGCTGATGAATTGCCTACATCGAGTAAACAAATTTTCCTAATCTTTCTGTTCAAGCGCCATCTAC” was tested, and the binding signal was 1.07 RPM ratio (pull-down/input). “GATGATTGTTCTCCCAGCTGATGAATTGGGATGTTCGAGTAAACAAATTTTCCTAATCTTTCTGTTCAAGCGCCATCTAC” was tested, and the binding signal was 0.931 RPM ratio (pull-down/input). In the case of “GATGATTGTTCTCCCAGCTGATGAATTTAATACATCGAGTAAACAAATTTTCCTAATCTTTCTGTTCAAGCGCCATCTAC”, the binding signal is reported as 1.14 RPM ratio (pull-down/input). In the case of “GATGATTGTTCTCCCAGCTGATGAATTAAGTCGATCGAGTAAACAAATTTTCCTAATCTTTCTGTTCAAGCGCCATCTAC”, the binding signal is reported as 0.986 RPM ratio (pull-down/input). For “GATGATTGTTCTCCCAGCTGATGAATTAAGCCCTTCGAGTAAACAAATTTTCCTAATCTTTCTGTTCAAGCGCCATCTAC”, the binding signal was 0.841 RPM ratio (pull-down/input). In the case of “GATGATTGTTCTCCCAGCTGATGAATTCATTAACTCGAGTAAACAAATTTTCCTAATCTTTCTGTTCAAGCGCCATCTAC”, the binding signal is reported as 0.891 RPM ratio (pull-down/input). For “GATGATTGTTCTCCCAGCTGATGAATTCGGGTAGTCGAGTAAACAAATTTTCCTAATCTTTCTGTTCAAGCGCCATCTAC”, the binding signal was 0.855 RPM ratio (pull-down/input). With “GATGATTGTTCTCCCAGCTGATGAATTCTTAGGGTCGAGTAAACAAATTTTCCTAATCTTTCTGTTCAAGCGCCATCTAC” the binding signal was 0.841 RPM ratio (pull-down/input). “GATGATTGTTCTCCCAGCTGATGAATTACAAATCTCGAGTAAACAAATTTTCCTAATCTTTCTGTTCAAGCGCCATCTAC” was tested, and the binding signal was 1.27 RPM ratio (pull-down/input). In the case of “GATGATTGTTCTCCCAGCTGATGAATTGCGAATATCGAGTAAACAAATTTTCCTAATCTTTCTGTTCAAGCGCCATCTAC”, the binding signal is reported as 1.17 RPM ratio (pull-down/input). With “GATGATTGTTCTCCCAGCTGATGAATTGGTATTTTCGAGTAAACAAATTTTCCTAATCTTTCTGTTCAAGCGCCATCTAC” the binding signal was 2.46 RPM ratio (pull-down/input). With “GATGATTGTTCTCCCAGCTGATGAATTGACTCATTCGAGTAAACAAATTTTCCTAATCTTTCTGTTCAAGCGCCATCTAC” the binding signal was 1.12 RPM ratio (pull-down/input). “GATGATTGTTCTCCCAGCTGATGAATTCCCGCGGTCGAGTAAACAAATTTTCCTAATCTTTCTGTTCAAGCGCCATCTAC” was tested, and the binding signal was 0.733 RPM ratio (pull-down/input). “GATGATTGTTCTCCCAGCTGATGAATTCCTTCCTTCGAGTAAACAAATTTTCCTAATCTTTCTGTTCAAGCGCCATCTAC” was tested, and the binding signal was 0.839 RPM ratio (pull-down/input). “GATGATTGTTCTCCCAGCTGATGAATTCTGGCTATCGAGTAAACAAATTTTCCTAATCTTTCTGTTCAAGCGCCATCTAC” was tested, and the binding signal was 0.891 RPM ratio (pull-down/input). In the case of “GATGATTGTTCTCCCAGCTGATGAATTATTATCCTCGAGTAAACAAATTTTCCTAATCTTTCTGTTCAAGCGCCATCTAC”, the binding signal is reported as 1.19 RPM ratio (pull-down/input). With “GATGATTGTTCTCCCAGCTGATGAATTGAGTGCCTCGAGTAAACAAATTTTCCTAATCTTTCTGTTCAAGCGCCATCTAC” the binding signal was 0.948 RPM ratio (pull-down/input). “GATGATTGTTCTCCCAGCTGATGAATTAACAAGATCGAGTAAACAAATTTTCCTAATCTTTCTGTTCAAGCGCCATCTAC” was tested, and the binding signal was 1.09 RPM ratio (pull-down/input). For “GATGATTGTTCTCCCAGCTGATGAATTGCGTGAGTCGAGTAAACAAATTTTCCTAATCTTTCTGTTCAAGCGCCATCTAC”, the binding signal was 1.03 RPM ratio (pull-down/input). With “GATGATTGTTCTCCCAGCTGATGAATTTACCCAATCGAGTAAACAAATTTTCCTAATCTTTCTGTTCAAGCGCCATCTAC” the binding signal was 1.37 RPM ratio (pull-down/input). For “GATGATTGTTCTCCCAGCTGATGAATTCTTACAGTCGAGTAAACAAATTTTCCTAATCTTTCTGTTCAAGCGCCATCTAC”, the binding signal was 0.931 RPM ratio (pull-down/input). For “GATGATTGTTCTCCCAGCTGATGAATTGCGAGAATCGAGTAAACAAATTTTCCTAATCTTTCTGTTCAAGCGCCATCTAC”, the binding signal was 1.09 RPM ratio (pull-down/input). For “GATGATTGTTCTCCCAGCTGATGAATTCAAGCGATCGAGTAAACAAATTTTCCTAATCTTTCTGTTCAAGCGCCATCTAC”, the binding signal was 0.847 RPM ratio (pull-down/input). With “GATGATTGTTCTCCCAGCTGATGAATTGAGCGCGTCGAGTAAACAAATTTTCCTAATCTTTCTGTTCAAGCGCCATCTAC” the binding signal was 0.952 RPM ratio (pull-down/input). In the case of “GATGATTGTTCTCCCAGCTGATGAATTGCAAATCTCGAGTAAACAAATTTTCCTAATCTTTCTGTTCAAGCGCCATCTAC”, the binding signal is reported as 1.32 RPM ratio (pull-down/input). With “GATGATTGTTCTCCCAGCTGATGAATTTGCTGCTTCGAGTAAACAAATTTTCCTAATCTTTCTGTTCAAGCGCCATCTAC” the binding signal was 1.04 RPM ratio (pull-down/input). In the case of “GATGATTGTTCTCCCAGCTGATGAATTTACCACCTCGAGTAAACAAATTTTCCTAATCTTTCTGTTCAAGCGCCATCTAC”, the binding signal is reported as 1.09 RPM ratio (pull-down/input). “GATGATTGTTCTCCCAGCTGATGAATTCCTGCAATCGAGTAAACAAATTTTCCTAATCTTTCTGTTCAAGCGCCATCTAC” was tested, and the binding signal was 1 RPM ratio (pull-down/input). With “GATGATTGTTCTCCCAGCTGATGAATTTCGGTGTTCGAGTAAACAAATTTTCCTAATCTTTCTGTTCAAGCGCCATCTAC” the binding signal was 0.974 RPM ratio (pull-down/input). In the case of “GATGATTGTTCTCCCAGCTGATGAATTCTCAAAGTCGAGTAAACAAATTTTCCTAATCTTTCTGTTCAAGCGCCATCTAC”, the binding signal is reported as 0.816 RPM ratio (pull-down/input). For “GATGATTGTTCTCCCAGCTGATGAATTAAAGCCTTCGAGTAAACAAATTTTCCTAATCTTTCTGTTCAAGCGCCATCTAC”, the binding signal was 0.916 RPM ratio (pull-down/input).
